# According to the supplement of paper PMC3334620:
# Whole data set: some 33,000 sequences, median “E-score (-0.5 to 0.5)” near -0.054, cut for the highest 2% near 0.35. The list shows a part of the results.
# Target: T1, Stb5 (UniProt P38699)
# T1 sequence: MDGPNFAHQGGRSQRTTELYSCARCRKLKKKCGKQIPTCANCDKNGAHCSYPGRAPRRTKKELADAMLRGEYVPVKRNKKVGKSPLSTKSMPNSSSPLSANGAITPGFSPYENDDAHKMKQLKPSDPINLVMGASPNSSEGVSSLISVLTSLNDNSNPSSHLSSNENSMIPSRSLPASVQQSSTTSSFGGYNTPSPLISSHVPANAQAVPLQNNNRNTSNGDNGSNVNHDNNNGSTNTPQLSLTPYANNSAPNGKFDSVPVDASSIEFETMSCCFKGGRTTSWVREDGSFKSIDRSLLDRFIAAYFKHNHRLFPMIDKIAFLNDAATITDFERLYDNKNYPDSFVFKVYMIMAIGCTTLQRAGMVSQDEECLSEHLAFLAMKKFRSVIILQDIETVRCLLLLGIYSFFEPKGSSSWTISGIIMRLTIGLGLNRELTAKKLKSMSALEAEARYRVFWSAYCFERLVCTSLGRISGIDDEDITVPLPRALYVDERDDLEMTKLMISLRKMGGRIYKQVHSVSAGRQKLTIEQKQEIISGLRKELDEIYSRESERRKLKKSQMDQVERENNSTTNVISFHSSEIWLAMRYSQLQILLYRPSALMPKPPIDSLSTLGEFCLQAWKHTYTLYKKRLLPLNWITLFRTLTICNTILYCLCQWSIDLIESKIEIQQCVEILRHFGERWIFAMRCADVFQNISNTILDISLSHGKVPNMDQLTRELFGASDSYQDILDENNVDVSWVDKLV
# Assay: PBM E-score (8-mer binding enrichment) (E-score (-0.5 to 0.5)); higher = stronger / more preferred TF binding; most listed sequences are background and not binding sites
# Settings: protein concentration: 200 nM; construct: GST-full length
# How it was run: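 Detection of bound protein used fluorescent anti-GST, with scans normalised by masliner. The proteins were GST-tagged yeast transcription factors applied at about 100-200 nM to universal all-10-mer Agilent arrays made double-stranded by primer extension. Each ungapped eight-base word, pooled with its reverse complement, was scored with an E-score from the Universal PBM Analysis Suite.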
row,Sequence,PBM E-score
1,GAGATGCA,-0.115
2,CGCTTGAA,0.126
3,CAATCCCA,-0.223
4,ATACATGG,-0.155
5,ATCAGAGG,0.0307
6,ATTAATGA,0.0675
7,ACGTGAGG,-0.0575
8,AAACAATC,-0.194
9,CAGCGGAC,0.332
10,AAGACAAA,-0.115
11,CACTAAAG,-0.0561
12,CTTTGATC,-0.079
13,TAAAGGTA,0.0345
14,ATTACAAC,0.046
15,ATACCTCA,-0.0977
16,CTGGATTC,-0.208
17,CAGCCCTG,-0.078
18,ACTTCCTC,-0.108
19,GCTCCCAC,-0.122
20,AGCTGCCA,-0.17
21,CAAACTAC,-0.158
22,CGTTCCGC,0.226
23,CCAGATCG,0.0559
24,CCCACTTA,-0.176
25,CGCAACAG,-0.0441

row,Sequence,PBM E-score
1,ATTTTCAA,-0.041
2,ACATAGAA,-0.0458
3,TCTCGACA,-0.109
4,CTGGTTTA,-0.0641
5,CACCTAAC,-0.0891
6,GCTTTCGA,-0.179
7,AGTACACA,-0.129
8,CCACTTCG,0.109
9,CAACTGTA,-0.182
10,ATGTCAGG,-0.0876
11,CCCGAGGA,0.0178
12,ATTGTTTC,-0.0126
13,CGACGCAG,0.0483
14,TCCCGTAA,0.0139
15,AACTGCAC,-0.247
16,AACAGCTG,-0.278
17,GCTGAAGA,-0.238
18,AGAGAAAG,-0.333
19,CAGCTACC,-0.167
20,ATTGCTCA,-0.143
21,CAATCCGG,0.167
22,AGATTGTG,-0.0847
23,ATTTGCTC,-0.0873
24,ACGCGTCT,-0.089
25,GACGTCAA,-0.231

row,Sequence,PBM E-score
1,AACCCTAA,-0.0664
2,AGCCCCTG,-0.157
3,ATAGAAGG,-0.023
4,GCAAGTGC,-0.191
5,CTGCGCTC,-0.0984
6,AGTGCCCG,0.14
7,AACGTAAA,-0.1
8,ATAGGTCC,0.341
9,ATGATGTG,-0.197
10,AGATTTTC,-0.175
11,CGTCAGAC,-0.0468
12,CACGGCAG,-0.0156
13,GTCTTTTA,-0.0581
14,CGTCCGAA,0.191
15,AACGGCGC,0.222
16,ACGGTCGA,-0.00303
17,CGCATGCG,-0.025
18,AACCGTTG,0.00655
19,CGTGGACA,0.0613
20,ACAGGGCC,0.115
21,CTACAGCC,-0.0412
22,CTAGGAAC,-0.0904
23,AAAACTGC,-0.0726
24,CTGAATGA,-0.0871
25,AAAGCCGT,0.324

row,Sequence,PBM E-score
1,GCACGGGC,0.2
2,ATCTTTTA,0.034
3,CTGAATCA,-0.177
4,GCATGGAC,0.0532
5,CAGACCGG,0.272
6,CGAGACAC,-0.00135
7,AGGCCAAC,-0.162
8,GTTGTTTA,-0.145
9,ATCTTGGA,-0.264
10,ACTCTAGA,-0.231
11,ACGAAAGG,0.14
12,CATGCCCA,-0.252
13,CCCTAATC,-0.0512
14,GCGGCCGC,0.271
15,ACACTCAT,-0.116
16,ACGAAGTC,-0.168
17,AGCGTGTG,-0.0578
18,CAACGACG,0.145
19,ATAAACGA,0.0369
20,CACGAGAA,-0.259
21,CCATCGGA,0.232
22,CTCGTGAA,-0.255
23,GCGGTTAA,0.185
24,GACCTAGC,-0.0632
25,GTGAACGA,-0.147

row,Sequence,PBM E-score
1,GCTTTTAC,0.265
2,CCGGCACA,0.211
3,ATATAAAA,0.156
4,AGAGGCCG,0.281
5,ACTTATCT,-0.135
6,ACGGTTTA,-0.18
7,ATTGATGC,-0.0372
8,CGATCGAG,-0.0275
9,GCATAACA,-0.194
10,ACGCTTAT,-0.177
11,GACCAGGC,-0.237
12,AGAGACAG,-0.273
13,AGATTAGC,-0.0635
14,GTGCAGAA,0.12
15,TAATTCCA,-0.0352
16,ATTTGGAA,-0.109
17,CTAGGATC,-0.0849
18,GAGTCCTA,-0.317
19,ATAGGGTA,-0.141
20,CTTGCGAC,-0.12
21,GCAGAGCA,-0.224
22,AACTCCAC,0.0324
23,AAGGTCAA,-0.128
24,CGGCCCCA,0.237
25,ATCGAGCC,0.0311

row,Sequence,PBM E-score
1,GCTTAACA,0.146
2,TGAAGGCA,-0.265
3,CATGCATA,0.0159
4,TCGGTGCA,0.271
5,TAGTGGAA,0.0242
6,CTCACATA,-0.098
7,CGGCGATC,0.122
8,CCGGCAGA,0.216
9,GCGCCGGA,0.298
10,AGCTGTGA,-0.266
11,CTTTAGTA,-0.0773
12,AGAATGAT,-0.254
13,AAGTACTC,-0.104
14,CAATAGTA,-0.0757
15,GTTGTCCA,-0.28
16,GTTCGTAA,-0.036
17,AAATCCAG,-0.312
18,CACTGCCA,-0.2
19,AAGGTGTA,-0.0581
20,ACAACTCC,0.0809
21,GCGACTAC,-0.0381
22,ACTGGCTG,-0.0745
23,CCATGCAA,-0.00387
24,AAAGCATT,-0.193
25,CGATCTAA,-0.087

row,Sequence,PBM E-score
1,GGGGGACC,-0.086
2,AACCCAGT,-0.043
3,AGAAGTTC,-0.138
4,CTGCTTCC,0.0143
5,CTATACGC,-0.0454
6,CAACCTAG,-0.224
7,AGCCTGGG,-0.0438
8,AATGCTCC,0.0571
9,CAGTCCCA,-0.372
10,GTCGAAAA,-0.0406
11,ATAATGGC,0.269
12,ATCCGGGG,0.275
13,TGGCGACA,-0.191
14,AATTAACA,-0.136
15,TAAAACTA,-0.0104
16,TCAGTGCA,-0.163
17,AAAGGTTC,-0.132
18,CACAACAG,-0.148
19,CTTGGTCC,0.0225
20,AGAATACG,0.0115
21,AAGGGAAG,-0.196
22,CAGCAGGA,-0.194
